{"source": "ChEMBL document CHEMBL4888484", "about": "“Replenishing the malaria drug discovery pipeline: Screening and hit evaluation of the MMV Hit Generation Library 1 (HGL1) against asexual blood stage Plasmodium falciparum ,using a nano luciferase reporter read-out” (2022)", "note": "Screen size: about 4,800 compounds; about 410 (8.5%) showed an effect of 50% or more. The list shows a part of the results."}
{"test_system": "Plasmodium falciparum", "experiment": "Confirmatory screen in NF54 pLDH assay, in single point, at 2uM, 72h", "assay_type": "functional, Erythrocyte", "settings": "timepoint 72 hour", "units": {"% Inhibition": "%"}}
{"compound": "COC(=O)CN(C(C)C)S(=O)(=O)c1cc(Cl)cc(Cl)c1", "% Inhibition": 12}
{"compound": "Cc1ccc[n+](Cc2ccc3ccccc3n2)c1", "% Inhibition": 53}
{"compound": "COc1ccc([C@@H]2CN(S(=O)(=O)c3ccc(OC)cc3)CCN2C)cc1", "% Inhibition": 12}
{"compound": "COC(=O)CN(CC(=O)Nc1ccc(C)c(C)c1)Cc1cnn(C)c1", "% Inhibition": -5}
{"compound": "Nc1nc(-c2ccc(N3CCCC3)cc2)cs1", "% Inhibition": -11}
{"compound": "CCCCN1CCN(C(=O)CN2CCN(Cc3ccc(F)cc3Cl)C2=O)CC1", "% Inhibition": 1}
{"compound": "CCCn1c(C)ccc(-c2noc(CCC(=O)NCc3cccnc3)n2)c1=O", "% Inhibition": 1}
{"compound": "O=C(NCC1CCOCC1)c1ccc2n[nH]c(=O)n2c1", "% Inhibition": 6}
{"compound": "Cc1cc(C)cc(-c2nnc(NC(=O)N3CCC[C@@H]3CO)s2)c1", "% Inhibition": 2}
{"compound": "CCCn1c(C(=O)N2CCOCC2)cc2sccc21", "% Inhibition": 5}
{"compound": "COc1ccc(-c2nccn3cc(C(=O)N4CCN(c5cccc(OC)c5)CC4)nc23)cc1", "% Inhibition": -1}
{"compound": "C=CCS(=O)(=O)NC(=O)c1cc(C)c(C)cc1Cl", "% Inhibition": 7}
{"compound": "O=C(CC(c1ccccc1)c1ccccc1)N1CC(=O)N2CCc3ccccc3[C@@H]2C1", "% Inhibition": 6}
{"compound": "CC1(C)CCC[C@@H]1NS(=O)(=O)c1ccc(C(=O)N2CCOCC2)cc1", "% Inhibition": 8}
{"compound": "O=C(CC1CCOCC1)N1CCN(C(=O)c2ccco2)CC1", "% Inhibition": -18}
{"compound": "CN(C)C(=O)c1cc2c(s1)CC[C@H](C(=O)NCCN1CCOCC1)C2", "% Inhibition": 15}
{"compound": "Cn1cccc1CNC1CCCCCC1C(N)=O", "note": "(configuration not stated)", "% Inhibition": 0}
{"compound": "C[C@@H]1CN(C(=O)NCCc2ccc(C(F)(F)F)cn2)C[C@H](C)O1", "% Inhibition": 6}
{"compound": "O=C(NCc1ccc2c(c1)OCO2)c1cccc2c1C(=O)N(C1CCCCC1)C2", "% Inhibition": -15}
{"compound": "O=C1C2ON(c3ccccc3)C(c3ccncc3)C2C(=O)N1c1ccc2ccccc2c1", "note": "(configuration not stated)", "% Inhibition": 8}
{"compound": "C#CCOc1ccc(CCNC(=O)N(C)c2c(C)noc2C)cc1", "% Inhibition": 2}
{"compound": "Brc1ccc2c(c1)C1CCCCC1N2", "note": "(configuration not stated)", "% Inhibition": 9}
{"compound": "CC[C@@H](CN(C)Cc1ccccc1)NC(=O)C1CCN(c2nc3cccnc3n(CC)c2=O)CC1", "% Inhibition": 28}
{"compound": "O=C(Nc1nnc(C2CC2)s1)[C@@H]1Cc2ccccc2O1", "% Inhibition": 5}
{"compound": "CCN1C(=O)[C@@]2(CC(=O)Nc3c2c(C)nn3-c2ncnc3nc[nH]c23)c2cc(C)ccc21", "% Inhibition": 11}
{"compound": "O=C(Oc1cccc2cccnc12)c1ccc(-c2ccccc2)cc1", "% Inhibition": 9}
{"compound": "CC(C)C1(C)CC(=O)N(C(C(=O)O)c2ccccc2)C1=O", "note": "(configuration not stated)", "% Inhibition": -6}
{"compound": "Cc1ccccc1C(=O)NCC(=O)NCCc1c[nH]c2ccccc12", "% Inhibition": -9}
{"compound": "Cc1nn2c(C(F)F)cc(-c3ccc4c(c3)OCO4)nc2c1Cl", "% Inhibition": 4}
{"compound": "Cc1ccccc1C(=O)Cc1ncc[nH]1", "% Inhibition": 53}
{"compound": "O=C(Nc1ccc(Cl)c(Cl)c1)Nc1ccc(Cl)cc1NC(=O)Nc1ccc(Cl)c(Cl)c1", "% Inhibition": 65}
{"compound": "CC[C@H]1CN2C=NC(N3CCN(C(=O)Nc4cc(F)cc(F)c4)CC3)=CC2=N1", "% Inhibition": 46}
{"compound": "Cc1ccccc1S(=O)(=O)c1cc2cc(Br)cc(Br)c2nc1N", "% Inhibition": 9}
{"compound": "C=CCNC(=O)c1cc(Br)cc(Br)c1OC", "% Inhibition": 13}
{"compound": "CCOCCc1nc(-c2ccccn2)c(CCOCC)nc1-c1ccccn1", "% Inhibition": 8}
{"compound": "C=CCNC(=NC)NC1CCN(c2cc(OC)cc(OC)c2)CC1", "% Inhibition": 7}
{"compound": "O=C(c1ccccc1COC1CCOCC1)N1CCC[C@H](c2nnc[nH]2)C1", "% Inhibition": 5}
{"compound": "CC(C)N(CC(C)(C)O)C(=O)Nc1ccc(C(N)=O)c(Cl)c1", "% Inhibition": 10}
{"compound": "COc1ccc(CCNC(=O)c2nnc(Cc3c(F)cccc3Cl)o2)cc1OC", "% Inhibition": -3}
{"compound": "CC12CN(S(=O)(=O)c3ccc4c(c3)OCCO4)C3(C(=O)OCc4ccccc4)CC1CCC23C", "note": "(configuration not stated)", "% Inhibition": 64}
{"compound": "O=C(c1cccs1)N1CCN(C2CCCCCC2)CC1", "% Inhibition": 8}
{"compound": "O=C(CCc1nc2cccnc2[nH]1)NCCN1CCOCC1", "% Inhibition": 14}
{"compound": "CCCC1CCC(c2ccc(-c3noc(-c4ccc(O)c(F)c4)n3)cc2)CC1", "note": "(configuration not stated)", "% Inhibition": 4}
{"compound": "O=C(Cc1c[nH]c2ccccc12)N[C@H]1CCS(=O)(=O)C1", "% Inhibition": -2}
{"compound": "O=C1C2CC2C(=O)N1Cc1ccccc1", "note": "(configuration not stated)", "% Inhibition": 10}
{"compound": "Cn1cc(C(=O)NCC2CCN(S(=O)(=O)c3cccs3)CC2)cn1", "% Inhibition": 2}
{"compound": "COc1ccc(C(=O)N2CCC3(CC2)C[C@@H](O)CCO3)cc1", "% Inhibition": 13}
{"compound": "Nc1cc2c(cc1C1=Nc3ccccc3C(c3ccccc3)(c3ccccc3)N1)OCO2", "% Inhibition": 10}
{"compound": "C[C@H]1NC(=O)N(CCc2nc(C(F)(F)F)cs2)C1=O", "% Inhibition": -12}
{"compound": "COc1ccc(Oc2c(CN(CC3CC3)C(=O)c3ccccc3)c(-c3ccccc3)nn2C)cc1", "% Inhibition": 1}
{"compound": "O=C1NC(=O)C2(CCN(C(=O)c3cc(-c4ccco4)[nH]n3)CC2)N1", "% Inhibition": -10}
{"compound": "O=c1[nH]c(=O)n(Cc2cc(Cl)cc3c2OCOC3)cc1Cl", "% Inhibition": 12}
{"compound": "CC1CN(Cc2ccccc2)CC(C)C1NC(=O)c1ccncc1F", "note": "(configuration not stated)", "% Inhibition": 7}
{"compound": "NC(=NCc1cccc2cccnc12)N1CCN(c2nccs2)CC1", "% Inhibition": 49}
{"compound": "COc1ccc2c(c1)[n+](CC(=O)c1ccc(-c3ccc(Br)cc3)cc1)c(CO)n2C", "% Inhibition": 54}
{"compound": "c1ccc(-c2nc(C[n+]3ccc4c(c3)CCCC4)cs2)cc1", "% Inhibition": 56}
{"compound": "CC(C)(C)C(=O)N1CCC(O)(CS(=O)(=O)Cc2ccccc2)CC1", "% Inhibition": 7}
{"compound": "Cc1ccc(-c2cc(O)cc(CC[C@H]3CCCCN3)c2)c(C)n1", "% Inhibition": 66}
{"compound": "O=S(=O)(N[C@H](c1nccs1)C1CC1)c1c(F)cccc1Cl", "% Inhibition": 10}
{"compound": "C[C@@H]1CN(CCN(C)C(=O)Nc2nc(C3CC3)cs2)C[C@H](C)O1", "% Inhibition": 9}
{"compound": "NC(=O)C(=O)Nc1ccccc1C(F)(F)F", "% Inhibition": -11}
{"compound": "O=C(Cn1cccc1-c1nc(-c2ccc(F)c(Br)c2)no1)N1CCc2ccccc2C1", "% Inhibition": 14}
{"compound": "O=C([C@@H]1CNc2ccccc2O1)N1CCOCC1", "% Inhibition": -1}
{"compound": "Cc1cc(CN(C)Cc2nccn2C)ccc1N1CCCCC1", "% Inhibition": 1}
{"compound": "CCN1CCC[C@@H]1CNCc1ccc2c(c1)OCCO2", "% Inhibition": 1}
{"compound": "O=C(N[C@H]1CCCc2occc21)c1ccco1", "% Inhibition": 7}
{"compound": "O=C(NCc1ccc(F)cc1F)[C@H]1CCCN(c2cn[nH]c(=O)c2)C1", "% Inhibition": -8}
